Assay results from PubChem BioAssay AID686978 (National Center for Advancing Translational Sciences (NCATS), 2013).
The whole screen tested about 420,000 compounds, of which about 64,000 (15%) were called active. This list was built around the results that the source calls inconclusive (neither active nor inactive); the mix of calls is not that of the screen. The call rests on the fitted dose curve; in most records, active means well fitted inhibition curve with a large enough effect; inconclusive means small, poorly fitted or top-dose-only effect; inactive means flat fitted curve, though single readings scatter. No potency is given beside an inconclusive call; the fits are too rough.

experiment: qHTS for Inhibitors of human tyrosyl-DNA phosphodiesterase 1 (TDP1): qHTS in cells in absence of CPT; conditions: DT40 Tdp1-/- hTDP1 cells, no CPT, ATP luminescence, 48 h; activity change, negative = growth inhibition: at 46.2 µM (top of the series) unless noted; further: nearly all actives have a fitted effect of over 55% in size
How it was run: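 Stably hTDP1-transfected Tdp1-null chicken DT40 cells were treated with library compounds minus camptothecin and grown for at least 48 hr at 37 °C, after which cellular ATP was quantified by luminescence.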
On the % scale 0 is the no-effect control and ±100 the full control effect; potency means the concentration at half of the fitted maximal effect; tags describe the fitted curve by direction and shape.

| Structure (SMILES) | Potency | activity change, negative = growth inhibition |
| --- | --- | --- |
| O=C(NCC1CCCO1)c1ccc(S(=O)(=O)N2CCC(c3nc4ccc(Cl)cc4[nH]3)CC2)cc1 (stereo not drawn) | active: 23.1 µM |  |
| CCOC(=O)c1c(NC(=S)Nc2ccccc2)sc2c1CC(C)(C)SC2 | inconclusive [inhibitor, single point] |  |
| CCN(CC)c1ccc(/C=N/NC(=O)c2nnn(-c3nonc3N)c2C(C)C)c(O)c1 | active: 3.26 µM |  |
| CCc1ccc(-c2cn3nc(-c4ccccc4)cnc3n2)cc1 |  | inactive: -4.91% |
| Cc1ccc2oc(=O)c3cc(C(=O)NCc4ccco4)sc3c2c1 |  | inactive: -15.9% |
| CSc1nc2c(c(-c3ccc(O)cc3)c1C#N)CCC2 |  | inconclusive: -33.2% [inhibitor] |
| Cc1[nH]c2ccccc2c1C(=O)CSc1cccc[n+]1[O-] | inconclusive [inhibitor, single point] |  |
| Cc1ccc2nc(N(CCCN(C)C)C(=O)c3ccc(Br)s3)sc2c1 | active: 23.1 µM |  |
| CCOC(=O)c1oc2ccccc2c1CSc1nnnn1-c1ccc(C)cc1 | inconclusive [inhibitor, single point] |  |
| COC(=O)c1ccc2nc(-c3ccc(C)cc3)c(Cc3ccsc3)n2c1 | active: 20.6 µM |  |
| O=C(c1cnn2c(C(F)F)cc(-c3ccccc3)nc12)N1CCc2ccccc21 | inconclusive [inhibitor, single point] |  |
| CC(=O)NCCNc1ncnc2ccc(-c3ccccc3C(F)(F)F)cc12 | inconclusive [inhibitor, single point] |  |
| COc1ccc(-c2nnc(SCc3ccc(C(=O)O)cc3)o2)cc1OC |  | inactive: -9.02% |
| COc1ccc(C(=O)N2CCN(c3cnn(-c4ccccc4)c(=O)c3Cl)CC2)cc1 | inconclusive [inhibitor, single point] |  |
| COc1ccnc(Oc2ccccc2)c1C(=O)N/C=N/OCc1ccccc1F | inconclusive [inhibitor, single point] |  |
| Cc1nn(CC(=O)NCCCN2CC(C)CC(C)C2)c(=O)c2cccn12 (stereo not drawn) |  | inactive: 30.8% |
| Cn1c(-c2ccccc2)c(C(=O)CC#N)c2ccccc21 | inconclusive [inhibitor, single point] |  |
| COc1ccccc1NC(=S)N1CCNC(=O)C1CC(=O)Nc1cccc(C)c1 (stereo not drawn) |  | inactive: 17.1% |
| O=C(COC(=O)c1cc(S(=O)(=O)N2CCOCC2)ccc1F)Nc1ccccc1C(F)(F)F |  | inactive: -11.2% |
| O=C(COC(=O)CSc1cc(Cl)ccc1Cl)NCc1ccc2c(c1)OCO2 | inconclusive [inhibitor, single point] |  |
| O=C1c2[nH]nc(-c3ccccc3O)c2C(c2cccc(Cl)c2)N1Cc1ccco1 (stereo not drawn) | active: 18.4 µM |  |
| CCN(CC)c1ccc(NC(=O)c2cncc(Br)c2)cc1 | inconclusive [inhibitor, partial curve] |  |
| COC(=O)c1ccc(/C=C/c2c(-c3ccsc3)sc3ccccc23)cc1 | inconclusive [inhibitor, single point] |  |
| CC(C)c1ccc(NC(=O)c2cccn2-c2nnc(N3CCCCC3)s2)cc1 | inconclusive [inhibitor, single point] |  |

| Structure (SMILES) | Potency | activity change, negative = growth inhibition |
| --- | --- | --- |
| CC(C)OCCCNC(=O)c1c(N)n(/N=C/c2cccs2)c2nc3ccccc3nc12 | inconclusive [inhibitor, partial curve] |  |
| COc1cccc(-c2nccc(NCc3ccccc3OC)n2)c1 | inconclusive [inhibitor, single point] |  |
| CCn1c(CN2CCC(C)CC2)nc2cc(NC(=O)COc3ccc([N+](=O)[O-])cc3)ccc21 |  | inactive: -19% |
| CC1=Nc2cc(C(=O)N3CCCC3)ccc2Sc2ccc(C)cc21 | inconclusive [inhibitor, single point] |  |
| CCN(CC)CC(=O)N1c2ccccc2CCc2ccc(NC(=O)c3cc(OC)c(OC)c(OC)c3)cc21 |  | inactive: 1.94% |
| CCOP(=O)(OCC)C1NC(=O)N(c2ccccc2)C1=O (stereo not drawn) |  | inactive: 4.58% |
| CCc1ccc(C2NC(=O)c3ccccc3O2)cc1 (stereo not drawn) |  | inactive: -14.5% |
| CCc1ccc(C(=O)NNC(=O)c2cccc(S(=O)(=O)N3CCN(C)CC3)c2)cc1 |  | inactive: -14.1% |
| O=C(C1CC1)N1N=C(c2ccc(Br)cc2)CC1(O)C(F)(F)F (stereo not drawn) | inconclusive [inhibitor, single point] |  |
| CCOc1ccc(-c2cc(N)n(S(=O)(=O)c3ccc(OC)c(OC)c3)n2)cc1 | inconclusive [inhibitor, single point] |  |
| CC1CN(c2nc3c(c(=O)[nH]c(=O)n3C)n2Cc2ccccc2F)CC(C)O1 (stereo not drawn) |  | inactive: 3.36% |
| CCc1ccc(NC(=O)c2nc(SCc3ccccc3F)ncc2Cl)cc1 |  | inactive: -28.7% |
| COc1cccc(NC(=O)CN(C)CC(=O)Nc2cccc(C(F)(F)F)c2)c1 |  | inconclusive: -32.9% [inhibitor] |
| COc1ccc(C2c3c(ncn(CCCO)c3=N)Oc3ccc4ccccc4c32)cc1OC (stereo not drawn) | active: 18.4 µM |  |
| Cc1nn(-c2ccccc2)c2c1C(=O)NC(=O)C(C)(C)C2 |  | inactive: -19.3% |
| O=C(NC(=S)Nc1ccc(Cl)cn1)C(c1ccccc1)c1ccccc1 | active: 23.1 µM |  |
| CN1CCN(CC(=O)N(C)c2nc(-c3ccccc3)cs2)CC1 | inconclusive [inhibitor, single point] |  |
| Cc1cc(/C=C(\C#N)C(=O)N2CCOCC2)c(C)n1C1CCCC1 | active: 11.6 µM |  |
| CC1CC(C)CN(c2ccc(C(=O)OCC(=O)NC3CCCc4ccccc43)cc2[N+](=O)[O-])C1 (stereo not drawn) | inconclusive [inhibitor, single point] |  |
| CC(C)c1ccc(NC(=O)NC2(C(=O)NCc3cccnc3)CCCCC2)cc1 |  | inactive: -5.45% |
| COC(=O)c1cc(NC(=O)CN(c2ccccc2)S(=O)(=O)N(C)C)ccc1Cl | active: 23.1 µM |  |
| CCN1CCN(C(=O)c2ccc3c(c2)N(Cc2cc(C)ccc2C)C(=O)c2ccccc2S3=O)CC1 (stereo not drawn) | active: 16.4 µM |  |
| COc1ccc(-c2nc3cc(C)ccn3c2NC(=O)c2ccccc2OC)cc1 | inconclusive [inhibitor, full curve, poor fit] |  |
| O=C(CSc1nc2ccccc2nc1N1CCCCC1)N1CCN(c2ccccc2)CC1 | inconclusive [inhibitor, single point] |  |
